Several values for one entry are separate records, joined by “and”; a condition that tells them apart may be missing. Identical values can stand only once. Among all 420,000 compounds or so, about 64,000 (15%) were called active. The shares of active, inactive and inconclusive entries below differ from those in the screen. The call rests on the fitted dose curve; in most records, active means well fitted inhibition curve with a large enough effect; inconclusive means small, poorly fitted or top-dose-only effect; inactive means flat fitted curve, though single readings scatter. Where the call is inconclusive, the potency comes from a doubtful curve fit.
assay: qHTS for Inhibitors of human tyrosyl-DNA phosphodiesterase 1 (TDP1): qHTS in cells in absence of CPT; conditions: DT40 Tdp1-/- hTDP1 cells, no CPT, ATP luminescence, 48 h; activity change, negative = growth inhibition: at 46.2 µM (top of the series) unless noted; further: nearly all actives have a fitted effect of over 55% in size
Summary of the method: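 Camptothecin absent (DMSO only). Human TDP1-complemented DT40 knockout cells, 400 cells/well, 37 °C for minimum 48 hr; ATP measured via CellTiter-Glo, 30 min dark incubation, luminescence.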
On the % scale 0 is the no-effect control and ±100 the full control effect; potency means the concentration at half of the fitted maximal effect; tags describe the fitted curve by direction and shape.

Compound | Potency | activity change, negative = growth inhibition
Cc1nc(Cl)nc(N(C)c2ccccc2)c1[N+](=O)[O-] | inconclusive: 29.1 µM [inhibitor, single point] | –
Cc1ccc(CNC(=O)c2cc3c(=O)n(C)c4ccccc4c3n2C)o1 | inconclusive: 9.2 µM [inhibitor, partial curve, poor fit] | –
CC(C)(C)n1ncc2c(=O)n(CC(=O)NCc3ccco3)cnc21 | inconclusive: 25.9 µM [inhibitor, single point] | –
CCOc1cc(N2CCOCC2)c(OCC)cc1NC(=O)CN1C(=O)NC2(CCCCC2)C1=O | – | inactive: 0.0547%
Cc1cccc(NC(=S)NCc2cccs2)c1 | inconclusive: 16.4 µM [inhibitor, single point] | –
COC(=O)N1CCCCC1c1cc(C(=O)Nc2ccc3c(c2)OCO3)no1 (stereo unspecified) | – | inactive: -25.4%
Cc1ccc(O)c(N=Cc2ccc(C)s2)c1 | – | inactive: -14.9%
O=C(Nc1ccccc1N1CCCC1)c1ccc(Br)o1 | inconclusive: 29.1 µM [inhibitor, single point] | –
COc1ccc(CN2CCC(=O)N([C@H](CO)CC(C)C)CC2)cc1 | inactive and inconclusive: 25.1 µM [inhibitor, single point] | –
COc1ccc(C2(C)NC(=O)N(CC(=O)NC(C)c3ccc(CC(C)C)cc3)C2=O)cc1 (stereo unspecified) | inconclusive: 29.1 µM [inhibitor, single point] | –
Cc1cccc(-c2nc(CN3CCN(C(=O)C4CCCO4)CC3)cs2)c1 (stereo unspecified) | inconclusive: 18.4 µM [inhibitor, single point] | –
Cc1ccc2nc(N(Cc3cccnc3)C(=O)Cc3ccccc3)sc2c1 | – | inactive: -17%
Brc1ccc(C2C=Cc3ccccc32)cc1 (stereo unspecified) | inconclusive: 35.5 µM [inhibitor, single point] | –
CCOC(=O)C1(CCc2ccccc2)CCN(Cc2ccc(C(=O)OC)cc2)CC1 | active: 16.4 µM | –
COc1ccc(C(=O)/C=C/c2ccccc2)c(O)c1 | active: 23.1 µM | –
Cc1cccc(OCCCC(=O)NC2CCCCC2)c1 | – | inactive: -20.2%
Clc1ccccc1Cn1nnc2c(N3CCOCC3)nc(C3CC3)nc21 | inconclusive: 25.9 µM [inhibitor, single point] | –
CCNC(=S)Nc1cc2oc3ccccc3c2cc1OC | inconclusive: 32.6 µM [inhibitor, partial curve, poor fit] | –
CC(C)[C@@H]1CC[C@@H](C)c2c(-c3ccccc3)n[nH]c21 | inconclusive: 29.1 µM [inhibitor, single point] | –
CCCCNC(=O)C1(C)CCN1Cc1ccc(C#N)cc1 (stereo unspecified) | – | inactive: -11.6%
Cc1ccccc1Cn1c(SCc2ccc(C(=O)NC(C)c3ccccc3)cc2)nc2ccncc21 (stereo unspecified) | active: 16.4 µM | –
O=C(Cc1ccc(Cl)cc1)Nc1cccc(-c2nnc(-c3ccco3)o2)c1 | inconclusive: 2.06 µM [inhibitor, full curve, poor fit] | –
CC(=O)N(Cc1cc(=O)[nH]c2ccccc12)c1ccc(C)cc1C | – | inactive: -4.22%

Compound | Potency | activity change, negative = growth inhibition
CCOC(=O)c1ccccc1NC(=O)Cn1ncc2c([nH]c3ccccc32)c1=O | inconclusive: 25.9 µM [inhibitor, single point] | –
CCn1c(NCCc2ccc(OC)c(OC)c2)nc2c1c(=O)n(C)c(=O)n2C | active: 7.31 µM | –
O=S(=O)(N=S(N1CCCCC1)N1CCCCC1)c1ccccc1 | inconclusive: 20.6 µM [inhibitor, partial curve] | –
O=C(O)CCC(=O)Nc1ccc(N2CCOCC2)cc1 | – | inactive: -10.6%
COc1cc(/C=C(/C#N)C(=O)Nc2ccc(C)cc2)ccc1Oc1nc(Cl)ncc1F | active: 16.4 µM | –
COc1ccc(CCCc2nnc(SCC(=O)N/N=C\c3ccc(O)c(OC)c3)o2)cc1C | inconclusive: 29.1 µM [inhibitor, single point] | –
CC1=C(C(=O)OCc2ccccc2)C(c2cccnc2)n2ncnc2N1 (stereo unspecified) | active: 14.6 µM | –
COc1ccc(-c2cc3nc(C)cc(N4CCN(C(=O)c5ccoc5)CC4)n3n2)cc1 | active: 20.6 µM | –
Cc1c2c(n3c(nc4ccccc43)c1C#N)N(CCCN(C)C)CC2 | inconclusive: 29.1 µM [inhibitor, single point] | –
Cc1ccsc1C(=O)N/N=C/C=C/c1ccccc1[N+](=O)[O-] | inconclusive: 14.6 µM [inhibitor, partial curve] | –
COc1ccc(CN2CCn3ncc(C(=O)Nc4cc(C)cc(C)c4)c3C2=O)cc1 | inconclusive: 1.03 µM [inhibitor, full curve] | –
COc1ccc(C(=O)CN2CCN(S(=O)(=O)c3ccc(C(C)C)cc3)CC2)cc1 | inconclusive: 23.1 µM [inhibitor, single point] | –
COC(=O)c1ccc2c(=O)n(Cc3ccc(C(=O)NCCCN4CCC(C)CC4)cc3)c(=S)[nH]c2c1 | active: 16.4 µM | –
Cc1cccc(COCC(Cc2ccccc2)N2CCN(C(=O)c3ccc(C(F)(F)F)cc3)CCC2=O)c1 (stereo unspecified) | active: 20.6 µM | –
Cc1ccc(C(=O)Cc2nnc(C)s2)cc1 | inconclusive: 23.1 µM [inhibitor, single point] | –
CCc1ccc(-n2c(=O)c3c4c(sc3n(CC(=O)NCCCOC)c2=O)CCCC4)cc1 | inconclusive: 29.1 µM [inhibitor, single point] | –
CC1CCN(c2ncnc3c2cnn3-c2ccc(F)cc2)CC1 | inconclusive: 29.1 µM [inhibitor, single point] | –
COc1ccccc1N1CCN(C(=O)c2cc3cc(Cl)ccc3[nH]2)CC1 | active: 18.4 µM | –
CN(C)c1ccc(/C=N\NC(=O)c2cccc3cc[nH]c23)cc1 | active: 6.51 µM | –
O=C(COC(=O)c1ccc(O)cc1O)Nc1ccc2ccccc2c1 | active: 13 µM | –
COC(=O)c1ccc2c(c1)C(NC(C)=O)CCc1cc(OC)c(OC)c(OC)c1-2 (stereo unspecified) | active: 0.0206 µM | –
CCc1ccc(-c2nc(CN3CCC(C(=O)NCCc4ccc(Cl)cc4)CC3)c(C)o2)cc1 | inconclusive: 2.91 µM [inhibitor, single point] | –
Cc1cc(C)cc(N(CC(=O)N2CC=C(c3ccccc3)CC2)S(=O)(=O)c2c(C)noc2C)c1 | inconclusive: 29.1 µM [inhibitor, single point] | –
